# Results as given in PubChem BioAssay AID504832 (National Center for Advancing Translational Sciences (NCATS), 2011).
# Screen size: about 310,000 compounds; about 18,000 (5.8%) were called active. The inconclusive results got no clear call from the source; some entries with a clear call stand among them for comparison. The call rests on the fitted dose curve; in most records, active means well fitted inhibition curve with a large enough effect; inconclusive means small, poorly fitted or top-dose-only effect, or another doubt; inactive means no such curve, though single readings can be large or run the other way. Potencies of inconclusive entries are left out as doubtful fits.
# Assay: Primary qHTS for delayed death inhibitors of the malarial parasite plastid, 48 hour incubation
# Conditions: P. falciparum luciferase growth in erythrocytes; series mostly up to 28.7 µM; activity change, negative = inhibition: at the top concentration
# Outline: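 A one-generation exposure of luciferase-tagged malaria parasites in RPMI 1640/Albumax erythrocyte culture, 37 C and 5% CO2. Inhibition is inferred from decreased luminescence after adding detection reagent.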
# On the % scale 0 is the no-effect control and ±100 the full control effect; potency means the concentration at half of the fitted maximal effect; tags describe the fitted curve by direction and shape.
SMILES,Potency,"activity change, negative = inhibition"
Cc1ccc(N2C=Nc3ccc(C)c4nc(C)cc2c34)cc1,active: 9.28 µM,
CCN(CC)S(=O)(=O)c1cccc(-c2nnc(SCCCC(=O)c3ccccc3)o2)c1,"inconclusive [inhibitor, single point]",
COc1ccc(O)c(C2=Nc3ccccc3N=C(c3cccs3)C2)c1,,inactive: -7.31%
O=S(=O)(NCCc1csc(-c2cccnc2)n1)c1cc(F)ccc1F,,inactive: -21.5%
CN(C)c1ccc(NC(=O)CSc2nnc(-c3cnccn3)n2C)cc1,,inactive: -18.7%
O=C(CS(=O)c1cccc(C(F)(F)F)c1)Nc1ccc(Cl)cc1Cl (stereo not given),"inconclusive [inhibitor, single point]",
COc1ccccc1C1CC(c2ccc(NS(C)(=O)=O)cc2)=NN1C(=O)c1ccccc1 (stereo not given),active: 2.08 µM,
CCC(Oc1nc2ccccc2nc1-c1ccccc1NC(C)=O)C(=O)c1ccccc1 (stereo not given),"inconclusive [inhibitor, partial curve]",
O=[N+]([O-])c1ccc(Nc2nc(N/N=C/c3cccc(F)c3)nc(N3CCCC3)n2)cc1,active: 2.94 µM,
Cc1ccc(C)n1-c1ccc(N2CCOCC2)nc1,"inconclusive [inhibitor, single point]",
COC(=O)c1ccc(OCC(=O)Nc2ccccc2C(=O)NC2CC2)cc1,"inconclusive [inhibitor, single point]",
COc1cccc(/C=N/NC(=O)c2ccncc2)c1OC(=O)c1ccc(Br)cc1,"inconclusive [inhibitor, single point]",
Cc1ccccc1NC(=O)NCCc1ccc(Cl)cc1,"inconclusive [inhibitor, single point]",
CN(c1ccc(F)cc1)S(=O)(=O)c1ccc(Cl)c(C(=O)NC2(C)CCS(=O)(=O)C2)c1 (stereo not given),,inactive: -8.88%
CCOC(=O)N1CCN(C(=O)C2CCN(S(=O)(=O)c3cc(Cl)ccc3OCC)CC2)CC1,"inconclusive [inhibitor, partial curve]",
O=S(=O)(NC1CCN(Cc2ccccc2)CC1)c1ccc2ccccc2c1,"inconclusive [inhibitor, single point]",
COc1ccc(-c2ccc(C)cc2)cc1[C@H]1[C@@H]2C=CCC[C@@]2(C)C(=O)N1Cc1ccccc1,active: 11.7 µM,
Cc1csc(NC(=O)c2cc([N+](=O)[O-])cc([N+](=O)[O-])c2)n1,,inactive: -27.8%
CCc1nnc(NC(=O)Cc2c[nH]c3ccccc23)s1,,inactive: -7.9%
CCOC(=O)C1(Cc2cccc(Cl)c2)CCCN(CCO)C1 (stereo not given),"inconclusive [inhibitor, single point]",
